Consider 120 sequences from the supplement of paper PMC10126150.

The subject of this data set is ATP. The data set can be described thus: switch fluorescence ratio, 500 uM ATP over buffer (Cy3 cluster intensity, sum of 5 cycles each) (fold (ratio)); higher = stronger signal-on switching upon ATP binding; sequences stand for … in TCGTCGGCAGCGTCAGATGTGTATAAGAGACAGTTTTTTTTTTTTTTTTTTTTTTTTT…TC. The following applies: aptamer strand: ATP DNA aptamer (quencher-CACCTGGGGGAGTATTGCGGAGGAAGG + anchor), 100 nM annealed; ATP concentration: 500 uM; one replicate. Put shortly: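 Values give the fluorescence ratio for each switch-domain sequence, averaged from per-cluster ratios of summed target-cycle to summed buffer-cycle Cy3 intensity. The Cy3-labelled switching-strand clusters sat on a modified Illumina MiSeq flow-cell, were annealed to 100 nM quencher-labelled ATP aptamer, and were imaged in selection buffer, then after 15 min with 500 uM ATP at 22 °C. Five cycles ran with NaOH stripping and re-annealing between them, and clusters outside 100-1000 RFU were excluded.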

Values marked as one replicate rest on one cluster of the flow cell; about a third of the high ones do not repeat.
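Note: ATP exposure 15 min at 22 °C before imaging.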

As to CAACATTCAT, the switch fluorescence ratio is 1.01.

On to TGCGTTCCCT, for which the switch fluorescence ratio is 1.01. Next, GAGTGAGACC: 0.974; GTGCCACGTA: 1.01. Next, TTTATATCGC: 1.01; GGCGTCAGAT: 1.02; GCCTACGAG: 1.09. Next, CGTAATATGG: 1.25. In the case of CAGCGCTCGA, the switch fluorescence ratio stood at 0.992. Take CGCGTGAAAG: the switch fluorescence ratio is 1.01. Under AGAGACCCAT stands 0.979; under GCAAGGGTCA, 1.07; under ACTTTTCAGG, 1.01. Turning to AGAAAAAAAA, the switch fluorescence ratio was 1.01. Next, GTTGCTTACC: 1. For the sequence TTGATCAG, the switch fluorescence ratio was 1.02.

For the sequence ATACTGTAAC, the switch fluorescence ratio came to 1.22. With TGAATAGGTA, the switch fluorescence ratio stood at 1. On to TACGTTGGTT, for which the switch fluorescence ratio is 0.967. Consider TCACGTATGC, for which the switch fluorescence ratio was 1.01. Next, ACAGGTGTCG: 0.962; AGATCTTAG: 1; CATATCTTAG: 1.02. Regarding TTTGACTGTG, the switch fluorescence ratio turned out to be 0.969. Regarding AGCAAAATGC, the switch fluorescence ratio was found to be 1.23. Under TCTACCTTGT stands 1.03; under CCGACTAACG, 1.33. Next, AGGAGGTTCT: 0.972; AGGGCGCCT: 0.985; GCTACAAGGT: 1. As for GCGGAGGTGT, the switch fluorescence ratio was found to be 1.11. Next, TGGATGAGTT: 0.998; GAATGTGAGT: 0.945; GGCCATACAT: 0.993.

For the sequence GCCGGCCGTA, the switch fluorescence ratio is 0.967. Take TAGTAGGGAT: the switch fluorescence ratio is 1.01. On to TTTGGTGTAA, for which the switch fluorescence ratio amounted to 1.04. GCGTGAGTAT: the switch fluorescence ratio came to 0.951. As to AGATACGGAC, the switch fluorescence ratio is 1.55. Take ACCACGGCGC: the switch fluorescence ratio amounted to 1.11. Next, CCCATTTATC: 1.05; TGGGAACCTG: 1.01.

On to CATGGCGAGG, for which the switch fluorescence ratio was determined as 1.02.

For TACTTTCTGT, the switch fluorescence ratio was determined as 1.01.

With GAAAAGTTAG, the switch fluorescence ratio is 0.982. Under CATAAAGTCC stands 1.01; under CCAATTATCA, 1.02; under GTGCTAATCA, 0.982. As for TTCCCAGCTA, the switch fluorescence ratio was found to be 2.83. Next, GAACCCCCGC: 1.67; AGGGGATACG: 1.02.

For CAACTCAATT, the switch fluorescence ratio stood at 1.01. Under GTCGTACTGG stands 0.967; under CTAGGGGACC, 1.01; under CGACGTCAAT, 4.81. Under TAGACGACGG stands 0.966. Next, TCATTGAAAA: 0.987. Turning to AATCTTGACG, the switch fluorescence ratio came to 1.01. For the sequence AGTACTGGGT, the switch fluorescence ratio was found to be 0.984.

For ACTATAGAGT, the switch fluorescence ratio turned out to be 1.05. As to TTCGCACAG, the switch fluorescence ratio worked out at 2.56. Under TACGGGCGA stands 1.03; under GGGCGCTATT, 0.984; under AGACACCTCA, 1.03. Consider AGAGGTACCA, for which the switch fluorescence ratio worked out at 1.02.

For GCTGCTCGA, the switch fluorescence ratio turned out to be 0.988. Turning to ATTTAACCCA, the switch fluorescence ratio came to 1.03. Under ATCTAGTGAC stands 0.998; under CGCCTTAATG, 0.973; under AAGTCACGGA, 1.07. Next, GACGCGCGT: 0.977. Next, AGCGATCTTC: 1.04. Turning to GGCGGGAGTT, the switch fluorescence ratio was 1.02. Next, GCTAAATGGG: 1.01; ACTTATTCTC: 1.01; CATTGTCGGG: 1. Under GCTACTGGGA stands 1.08; under GGTACATTCG, 1.08. Under ACTTGGTTGC stands 1.02; under TGTCTGAGAA, 0.95; under TGTCGACAGA, 0.973. For the sequence CGGTGAGCGG, the switch fluorescence ratio amounted to 1.02.

On to AAAGCACGGA, for which the switch fluorescence ratio was 1.05. Regarding ATTCAACTTC, the switch fluorescence ratio is 0.999.

For AGACATCTGT, the switch fluorescence ratio was 0.993. On to TGAAGGAATT, for which the switch fluorescence ratio was determined as 1.01. Next, TATTATCGGG: 0.948.

For the sequence AATTCCTGCA, the switch fluorescence ratio was found to be 1.1. Next, CCCATGTGAC: 1.26; ATCTCCGTGT: 1.12. Next, AAGTAATTCC: 1.13; GTGGCCTGG: 1.01. Next, CGAAAGGTTC: 1.04. Consider GGCGGAATGA, for which the switch fluorescence ratio is 1.04. Turning to AACATACGGG, the switch fluorescence ratio was found to be 1.51. GGAGTTGAA: the switch fluorescence ratio worked out at 0.958. Under GATATTACT stands 1.03; under GTTCCGTACT, 1.1; under TTCACGGTCA, 1.04. AACCTGTGTT: the switch fluorescence ratio is 0.958.

Consider TCATACATCT, for which the switch fluorescence ratio worked out at 1.05. Next, AAGCCGTGGT: 1.01. For AGCTATACAT, the switch fluorescence ratio was 1.18.

Regarding ACAGTGTAGA, the switch fluorescence ratio stood at 1.03.

For the sequence TATACGCGTC, the switch fluorescence ratio is 0.978. Take ACGGCGATG: the switch fluorescence ratio was 0.987. Under TTCTTCACAA stands 1.32. Under ACTCGGAATA stands 2.39.

For the sequence GTAACAAGTC, the switch fluorescence ratio was 1.02. Next, GTTATCATCG: 0.975; AAGGTGCCCA: 1.04; CAAGGAAAGC: 1.02. AGCCTATTAC: the switch fluorescence ratio came to 1.35. Turning to CTTTTATGGT, the switch fluorescence ratio is 0.977. Next, TATGTGGTCT: 1.01; ATGGGGTTAT: 0.995. Under AACGGGTTGA stands 0.995. As to ACAGTTGGTG, the switch fluorescence ratio turned out to be 1.03. Under AGCACCTGAT stands 1.09; under GTGTTCTAAG, 1.02.
